Test results reported in PMC6919601, “Identification of Plasmodium dipeptidyl aminopeptidase allosteric inhibitors by high throughput screening” (PLoS ONE, 2019).
About 230 (0.21%) of roughly 110,000 compounds showed an effect of 50% or more. Some of the results follow.

These compounds were tested against DPAP1 (Plasmodium falciparum, UniProt Q8IIJ9) (assay: primary screen, percent inhibition; read by cleavage of a fluorogenic dipeptide substrate; higher = more effect of the substance).
Design: species or system P. falciparum D10 trophozoite lysates; single well
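Note: 30 min substrate incubation versus DMSO and 10 µM JCP410 controls.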

DPAP1, sequence (Q8IIJ9 whole entry, looked up): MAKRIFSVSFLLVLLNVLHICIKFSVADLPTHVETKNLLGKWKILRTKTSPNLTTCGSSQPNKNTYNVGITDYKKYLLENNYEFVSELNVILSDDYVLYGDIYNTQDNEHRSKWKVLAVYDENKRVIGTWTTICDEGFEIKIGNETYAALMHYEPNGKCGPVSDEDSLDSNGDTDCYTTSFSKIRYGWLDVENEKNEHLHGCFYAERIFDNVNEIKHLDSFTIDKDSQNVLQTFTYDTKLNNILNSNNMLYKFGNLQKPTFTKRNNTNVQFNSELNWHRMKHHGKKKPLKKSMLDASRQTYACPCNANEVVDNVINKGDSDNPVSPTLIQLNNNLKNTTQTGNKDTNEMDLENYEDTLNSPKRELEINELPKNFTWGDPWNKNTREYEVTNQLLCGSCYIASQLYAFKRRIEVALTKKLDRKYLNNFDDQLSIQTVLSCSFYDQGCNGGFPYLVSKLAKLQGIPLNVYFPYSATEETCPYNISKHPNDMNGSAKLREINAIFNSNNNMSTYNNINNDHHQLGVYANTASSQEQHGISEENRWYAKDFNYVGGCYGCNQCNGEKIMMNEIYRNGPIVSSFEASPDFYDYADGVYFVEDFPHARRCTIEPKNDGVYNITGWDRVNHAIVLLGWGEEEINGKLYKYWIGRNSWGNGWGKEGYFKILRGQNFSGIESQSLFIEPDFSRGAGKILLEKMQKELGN

SMILES | % Inhibition @ 10 uM
C=CCn1c(SCC(=O)c2ccccc2)nc2sc3c(c2c1=O)CCC3 | -0.142%
CC(=C=CC(C)(C)C1NCCO1)CCC=C(C)C (centres unmarked) | -5.9%
Cc1cc(C)c(Cc2c(C)nc3c(C(=O)NCCC(C)C)cnn3c2C)c(C)c1 | -4.06%
Cc1cc2c(c(=O)n1Cc1ccccn1)C(c1cc3c(cc1Br)OCO3)C(C#N)=C(N)O2 (centres unmarked) | -2.91%
CCCCN(C)C(=O)Cn1nc(CC)n2c(cc3sccc32)c1=O | 3.4%
CCN1CCc2nc3sc(C(=O)Nc4cccnc4Cl)c(N)c3cc2C1 | 3.66%
N#CC1c2ccccc2C=CN1C(=O)c1ccc(F)cc1 (centres unmarked) | 2.17%
CCN1CCN(C(=O)c2ccc(-n3c(C)cc4c3CCCC4)cc2)CC1 | -0.613%
Nc1cccc(C(=O)CC2(O)C(=O)Nc3ccc(Br)cc32)c1 (centres unmarked) | -2.74%
CCOc1cc(CNCc2c(C(=O)O)c(C)n(Cc3ccc(C)cc3)c2C)cc(OCC)c1OCC | -5.49%
O=C(c1sc2ccccc2c1Cl)N1CCSCC1 | -3.26%
Oc1[nH]c2ccccc2c1C1=NCCC1 | -4.58%
COc1cccc(S(=O)(=O)NCC(=O)N2CCCCC2)c1 | 5.15%
Cc1cccc(C)c1OCCCCCN1CCN(C)CC1 | 7.67%
C=CCOc1ccc(CNC(C)(C)CO)cc1OC | -2.74%
Cc1nn(-c2ccccc2)c2c1C(c1c(F)cccc1F)C(C#N)=C(N)O2 (centres unmarked) | -4.75%
CC1CC(C)CN(CC(O)COCCC23CC4CC(CC(C4)C2)C3)C1 (centres unmarked) | -6.38%
COc1cc(C2=C/C(=C3/N=C(C)OC3=O)c3ccccc3O2)cc(OC)c1OC | -3.33%
Cc1ccc(OCC(=O)Nc2ccc(Cl)cc2)c(C)c1 | -2.76%
O=C(Nc1ccncc1)c1cc2cc(Br)ccc2oc1=O | 2.6%
COc1cccc2c1OC(c1ccc(F)c(F)c1)N1N=C(c3cccnc3)CC21 (centres unmarked) | 1.88%
Cc1ccc2nc(C)n3c4ccccc4c(NC(=O)c4ccccc4)c3c2c1 | -6.87%
CCc1nn(-c2cc(Oc3ccccc3)nc(C)n2)c(N)c1C#N | -5.48%
COc1ccccc1C1=NN(S(C)(=O)=O)C(c2ccco2)C1 (centres unmarked) | -3.34%
Cc1ccc2[nH]c3c(c2c1)CCCC3NC=O (centres unmarked) | 3.47%
CCOC(=O)c1c(S(=O)(=O)N(CC)Cc2ccccc2)c(C)n(C)c1C | 5.34%

SMILES | % Inhibition @ 10 uM
O=C(NCCCNC(=O)c1cccc(Cl)c1)c1cccc(Cl)c1 | 3.67%
O=C(O)CCNCCC(=O)c1ccccc1 | -7.66%
Cc1ccccc1CN1CCN(c2ccccc2F)CC1 | 0.317%
C=CCOc1c(CNc2nc[nH]n2)cccc1OCC | 2.02%
COc1ccc(CN2CCCN(C)CC2)c(OC)c1C | -6.82%
CC1Cc2cc(C(=O)C3=C(O)C(=O)N(CC4CCCO4)C3c3cccs3)ccc2O1 (centres unmarked) | 0.323%
CC(C)COc1ccc(S(=O)(=O)N2CCOCC2)cc1 | 5.11%
COc1ccccc1OCc1ccc(C(=O)N(C)C)o1 | -1.33%
O=C(c1cccc(Cl)c1)N1CCC(Cc2ccccc2)CC1 | 2.01%
CCOC(=O)c1c(NC(=O)/C=C/c2ccc(OC)c(OC)c2)sc2c1CCCC2 | 23.6%
COc1cccc(CNC(=O)C(C)n2nc(C)c3c(C)n(-c4ccccc4)nc3c2=O)c1OC (centres unmarked) | -0.128%
COc1ccc(OC)c(-n2cnc3cc(C(=O)NCCc4ccc(Cl)cc4)ccc32)c1 | -3.78%
O=C(Cn1cc2c(n1)CCCCC2)NC1CCN(Cc2ccccc2)CC1 | -1.8%
CC(C)C(NS(=O)(=O)c1cccs1)C(=O)N(C)Cc1ccccc1 (centres unmarked) | -0.0175%
CCC(C)(C(=O)NC1CCCCC1)N(C)C(C)=O (centres unmarked) | 1.26%
CC1(C)CC2=NC3=C(C(=O)CC(C)(C)C3)C(c3cc(Cl)ccc3OCC(=O)O)C2=C(O)C1 (centres unmarked) | -0.736%
O=c1oc2c3c(ccc2c2c1CCC2)OCN(Cc1ccccc1)C3 | 2.65%
CC(Sc1nnc2sc3ccccc3n12)C(=O)O (centres unmarked) | 0.415%
Cc1ccc(NC(=O)c2c(NC(=O)CN3CCNCC3)sc3c2CCCC3)cc1 | 0.528%
CCOC(=O)C1CCN(Cc2ccc([N+](=O)[O-])s2)CC1 | 3.05%
Cc1ccc(C(=O)Nc2sc3c(c2C(N)=O)CCCCC3)cc1 | 3.67%
CCOc1cc(-c2cc(N)n(S(=O)(=O)c3ccc(C)cc3)n2)cc(OCC)c1OCC | 4.28%
CCCn1cnc2c(oc3ccccc32)c1=O | -2.07%
O=C(CSc1nc2nncc-2c(O)n1-c1ccccc1)Nc1nsc(-c2ccccc2)n1 | 0.778%
CCCSC1=C(C#N)C2(CCCC2)C(C#N)=C(N)N1 | 6.15%
COc1cccc(CN2CCN(c3ccccc3F)CC2)c1 | -7.49%

SMILES | % Inhibition @ 10 uM
Cc1cc(F)ccc1NC(=O)c1cccc(OC(F)F)c1 | -1.42%
CCOCc1c(C)cc(C)c(C=C(C#N)C#N)c1C | -2.51%
COc1cc(/C=C2/C(=N)N3C(=NC2=O)SN=C3S(C)(=O)=O)ccc1OCc1ccc(F)cc1 | -3.39%
COc1ccccc1C1C(C(=O)c2ccc3c(c2)CC(C)O3)=C(O)C(=O)N1Cc1cccnc1 (centres unmarked) | -0.303%
Cc1c(C(=O)NCCc2ccccc2)oc2ccc(S(=O)(=O)N3CCOCC3)cc12 | -0.228%
Cc1nc2ccccc2n1CCc1nc2c3ccccc3nc(NCCN3CCOCC3)n2n1 | -3.85%
O=C(c1cc(S(=O)(=O)N2CCOCC2)ccc1Cl)N1CCCc2ccccc21 | 0.673%
CC1=CCC2C(=O)N(Cc3ccccc3)C(=O)C2C1 (centres unmarked) | 4.52%
O=C1NC2(CCCCC2)N(C(=O)c2ccc(Cl)cc2)C2=C1CCCC2 | -6.85%
Cc1ccc(C(C)NC(=O)Cc2ccccc2)c(C)c1 (centres unmarked) | 0.219%
Cc1ccc2nc3c(O)n(CC(=O)NCCCN4CCC(C)CC4)ncc-3c2c1 | 4.74%
CCc1ccc(NCCC(=O)c2ccc(C)o2)cc1 | -7.87%
Cc1noc2ncnc(N3CCCCC3)c12 | -4.02%
COc1ccccc1Nc1nc(-c2cc(C)ccc2C)cs1 | 3.03%
COc1ccc(C2c3c(n(C)c(=O)n(C)c3=O)N=C3c4ccccc4C(=O)C32)cc1 (centres unmarked) | 1.4%
CCSC1=C(C#N)C(c2ccc(Cl)cc2Cl)CC(=O)N1 (centres unmarked) | 2.92%
O=S(=O)(NCCO)c1ccc(N2CCC(c3ccc(Cl)cc3)=N2)cc1 | 17.2%
c1ccc(C2CC(c3ccco3)n3ncnc3N2)cc1 (centres unmarked) | 0.146%
CC12CN3CC(C)(CN(C1)C3c1ccccc1)C2O (centres unmarked) | 2.92%
O=C(Cn1nc(Cc2ccncc2)c2ccccc2c1=O)N1CCC(N2CCCCC2)CC1 | 42.7%
CCCNC(=O)CN(c1ccc(Cl)cc1C)S(C)(=O)=O | -0.564%
Cc1ccc(NC(=O)C2CCCN(S(=O)(=O)c3ccc4nc(O)ccc4c3)C2)nc1 (centres unmarked) | -6.16%
COC(=O)c1c(NC(=O)/C=C/c2ccc(OC)cc2)sc2c1CCCCC2 | -3.28%
Cc1ccc(CNC(=O)c2cc3c(s2)CSC3)cc1 | 0.44%
COc1ccc(Br)cc1/C=C1\N=C(c2ccc(Br)cc2)OC1=O | 0.78%
O=c1[nH]/c(=C/c2ccc(Cl)cc2Cl)c(=O)[nH]/c1=C/c1ccc(Cl)cc1Cl | 2.55%

SMILES | % Inhibition @ 10 uM
COc1ccc(S(=O)(=O)Nc2cncc(C(=O)N3CCN(Cc4ccccc4)CC3)c2)cc1 | -10.2%
CC1=C(C(=O)Nc2ccccc2)C(c2ccc(C(C)C)cc2)N2C(=O)CSC2=N1 (centres unmarked) | 3.69%
COc1ccc(NC(=O)c2sc3nc(C)c(Cl)c(C)c3c2N)cc1 | -5.13%
Cc1noc(C)c1S(=O)(=O)N1CCC(C(=O)N2CCN(Cc3ccccc3)CC2)CC1 | -1.55%
O=C(CCCc1nnc2n3nc(-c4ccccc4)nc3c3ccccc3n12)NCc1ccc(F)cc1 | -2.92%
O=C(NCc1ccc(Cl)cc1)C(=O)Nc1ccc(F)cc1 | -7.02%
O=C(O)COCC(=O)Nc1nncs1 | -1.11%
COc1cc2nc(SCC(=O)NCc3ccco3)n3nc(-c4ccccc4)nc3c2cc1OC | 2.9%
CCOC(=O)c1sc(N)nc1-c1ccc([N+](=O)[O-])cc1 | 23.9%
O=C(CN1C(=O)S/C(=C/c2cccc(Br)c2)C1=O)N1CCOCC1 | -1.61%
COc1ccccc1-c1cc(C(=O)NC(C)c2ccccc2)no1 (centres unmarked) | 2.01%
CCCCNc1ncnc2c1nc1n2CCCCC1 | -0.0255%
COc1cccc2c(O)c(CC=C(Cl)Cl)c(C)nc12 | -3.09%
CCCN(CCC)S(=O)(=O)c1ccc(C(=O)N2CCOCC2)cc1 | 5.16%
CC(=O)OC(COCCC12CC3CC(CC(C3)C1)C2)CN1CCOCC1 (centres unmarked) | -0.233%
CC1CC(C)CN(C(=O)C2CCC(CNS(=O)(=O)c3cccc4cccnc34)CC2)C1 (centres unmarked) | 5.68%
O=C1/C(=C/c2ccc(Br)s2)Cc2ccccc21 | 6.2%
CCC(C)NC(=O)c1ccc(N(C)C)cc1 (centres unmarked) | -8.46%
CCS(=O)(=O)N1CCN(C(=O)COc2ccc(C)cc2)CC1 | 3.79%
O=C(Nc1ccc(/C=C/c2ccccc2)cc1)c1ccccc1F | -2.59%
Cc1ccc(S(=O)(=O)c2cc3c(=O)n4cc(C)ccc4nc3n(C3CCCC3)c2=N)cc1 | 1.57%
Cc1ccc(NS(=O)(=O)c2ccc(NC(=O)COc3ccccc3C)cc2)c(C)c1 | -3.41%
CC1(C)OC(=O)N(CCc2c[nH]c3c(C(F)(F)F)cccc23)C1(C)O (centres unmarked) | -3.34%
